Paper PMC9911399, “Two distinct binding modes provide the RNA-binding protein RbFox with extraordinary sequence specificity”
Positions count from the first letter of the chain named. Some of the results follow.

B1: AUAACGG (DNA:RNA)
RNA: GGGAGACCGGAAUUCAGAUUGUCCAUAACGGUUAAAUCCCGUCGUAGCCACCA
DNA 1: CAATCTGAATTCCGGTCTCCC
DNA 2: TGGTGGCTACGACGGGATT
B2: AUUAAAC (DNA:RNA)
RNA: B1 RNA with A27U, C29A, G30A, G31C
DNA 1: CAATCTGAATTCCGGTCTCCC
DNA 2: TGGTGGCTACGACGGGATT
B3: CUGACAC (DNA:RNA)
RNA: B1 RNA with A25C, A27G, G30A, G31C
DNA 1: CAATCTGAATTCCGGTCTCCC
DNA 2: TGGTGGCTACGACGGGATT
B4: GUUAACG (DNA:RNA)
RNA: B1 RNA with A25G, A27U, C29A, G30C
DNA 1: CAATCTGAATTCCGGTCTCCC
DNA 2: TGGTGGCTACGACGGGATT
B5: AUCCGGU (DNA:RNA)
RNA: B1 RNA with A27C, A28C, C29G, G31U
DNA 1: CAATCTGAATTCCGGTCTCCC
DNA 2: TGGTGGCTACGACGGGATT
B6: AGAGAAC (DNA:RNA)
RNA: B1 RNA with U26G, A28G, C29A, G30A, G31C
DNA 1: CAATCTGAATTCCGGTCTCCC
DNA 2: TGGTGGCTACGACGGGATT
B7: UGCCCGA (DNA:RNA)
RNA: B1 RNA with A25U, U26G, A27C, A28C, G31A
DNA 1: CAATCTGAATTCCGGTCTCCC
DNA 2: TGGTGGCTACGACGGGATT
B8: UUGUGUU (DNA:RNA)
RNA: B1 RNA with A25U, A27G, A28U, C29G, G30U, G31U
DNA 1: CAATCTGAATTCCGGTCTCCC
DNA 2: TGGTGGCTACGACGGGATT
B9: UUAUGUC (DNA:RNA)
RNA: B1 RNA with A25U, A28U, C29G, G30U, G31C
DNA 1: CAATCTGAATTCCGGTCTCCC
DNA 2: TGGTGGCTACGACGGGATT
B10: CCGUGUU (DNA:RNA)
RNA: GGGAGACCGGAAUUCAGAUUGUCCCCGUGUUUUAAAUCCCGUCGUAGCCACCA
DNA 1: CAATCTGAATTCCGGTCTCCC
DNA 2: TGGTGGCTACGACGGGATT
B11: GCGAAUA (DNA:RNA)
RNA: B10 RNA with C25G, U28A, G29A, U31A
DNA 1: CAATCTGAATTCCGGTCTCCC
DNA 2: TGGTGGCTACGACGGGATT
B12: ACCCGGU (DNA:RNA)
RNA: B10 RNA with C25A, G27C, U28C, U30G
DNA 1: CAATCTGAATTCCGGTCTCCC
DNA 2: TGGTGGCTACGACGGGATT
B13: ACGCUUG (DNA:RNA)
RNA: B10 RNA with C25A, U28C, G29U, U31G
DNA 1: CAATCTGAATTCCGGTCTCCC
DNA 2: TGGTGGCTACGACGGGATT
B14: CGCAUAA (DNA:RNA)
RNA: B1 RNA with A25C, U26G, A27C, C29U, G30A, G31A
DNA 1: CAATCTGAATTCCGGTCTCCC
DNA 2: TGGTGGCTACGACGGGATT
B15: CUUCACG (DNA:RNA)
RNA: B1 RNA with A25C, A27U, A28C, C29A, G30C
DNA 1: CAATCTGAATTCCGGTCTCCC
DNA 2: TGGTGGCTACGACGGGATT
B16: UUUGGAU (DNA:RNA)
RNA: B10 RNA with C25U, C26U, G27U, U28G, U30A
DNA 1: CAATCTGAATTCCGGTCTCCC
DNA 2: TGGTGGCTACGACGGGATT
B17: GGCGCAU (DNA:RNA)
RNA: B1 RNA with A25G, U26G, A27C, A28G, G30A, G31U
DNA 1: CAATCTGAATTCCGGTCTCCC
DNA 2: TGGTGGCTACGACGGGATT
B18: GAUGUGG (DNA:RNA)
RNA: B1 RNA with A25G, U26A, A27U, A28G, C29U
DNA 1: CAATCTGAATTCCGGTCTCCC
DNA 2: TGGTGGCTACGACGGGATT
B19: ACCAAUC (DNA:RNA)
RNA: B1 RNA with U26C, A27C, C29A, G30U, G31C
DNA 1: CAATCTGAATTCCGGTCTCCC
DNA 2: TGGTGGCTACGACGGGATT
B20: ACCGUCA (DNA:RNA)
RNA: B1 RNA with U26C, A27C, A28G, C29U, G30C, G31A
DNA 1: CAATCTGAATTCCGGTCTCCC
DNA 2: TGGTGGCTACGACGGGATT

target: T1, RBFOX1 RRM RbFoxmut (Fox-RRM*) (Homo sapiens, UniProt Q9NWB1 109-208, R118D;E147R;N151S;E152T); assay: EMSA; HiTS-Eq, 1 nM pool, 10 min; buffer printed only for the single-RNA assays: 10 mM Tris pH 7.5, 150 mM NaCl, 3.4 mM EDTA, 0.001% NP-40, 30 C; settings: tags: His6 N-terminal (pET28a); label: 5' 32P
T1 sequence: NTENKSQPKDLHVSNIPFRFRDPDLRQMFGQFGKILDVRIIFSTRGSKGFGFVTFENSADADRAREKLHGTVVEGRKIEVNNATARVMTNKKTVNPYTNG
How it was run: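 Purified RbFox RRM (wild type or mutant) was equilibrated for 10 min in 50 µL with 1 nM of a 5′-radiolabelled pool of RNA with 7 randomized nucleotides, its flanks annealed to DNA oligonucleotides, across increasing protein concentrations. Free RNA was separated by 8% native PAGE, excised, reverse-transcribed, PCR-barcoded and sequenced on an Illumina HiSeq 2500. Relative association constants came from read-count changes of each variant against the control reaction, normalised to the cognate motif.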

Binder | binding signal
B1 | 0.065 KA relative to UGCAUGU
B2 | 0.0877 KA relative to UGCAUGU
B3 | 0.0613 KA relative to UGCAUGU
B4 | 0.111 KA relative to UGCAUGU
B5 | 0.0795 KA relative to UGCAUGU
B6 | 0.103 KA relative to UGCAUGU
B7 | 0.129 KA relative to UGCAUGU
B8 | 0.162 KA relative to UGCAUGU
B9 | 0.185 KA relative to UGCAUGU
B10 | 0.0949 KA relative to UGCAUGU
B11 | 0.137 KA relative to UGCAUGU
B12 | 0.0772 KA relative to UGCAUGU
B13 | 0.231 KA relative to UGCAUGU
B14 | 0.117 KA relative to UGCAUGU
B15 | 0.169 KA relative to UGCAUGU
B16 | 0.0735 KA relative to UGCAUGU
B17 | 0.0915 KA relative to UGCAUGU
B18 | 0.0839 KA relative to UGCAUGU
B19 | 0.0731 KA relative to UGCAUGU
B20 | 0.0725 KA relative to UGCAUGU
